# Among all 310,000 compounds or so, about 18,000 (5.8%) were called active. The inconclusive results got no clear call from the source; some entries with a clear call stand among them for comparison. Calls come from the whole dose curve; as a rule, active = well fitted inhibition curve with a large enough effect; inconclusive = small, poorly fitted or top-dose-only effect, or another doubt; inactive = no such curve, though single readings can be large or run the other way. Potencies of inconclusive entries are left out as doubtful fits.
# Assay: Primary qHTS for delayed death inhibitors of the malarial parasite plastid, 48 hour incubation
# Conditions: P. falciparum luciferase growth in erythrocytes; series mostly up to 28.7 µM
# Outline: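 Parasite viability was followed by luminescence of a genomically integrated firefly luciferase. Cultures held 0.1% parasitemia at 2% hematocrit (final), incubated under 5% CO2 at 37 C.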
# Potency is the fitted concentration of half-maximal effect; tags give direction and shape of the fitted curve.
row,Compound,Potency
1,CN(Cc1cccc2cnccc12)C(=O)CCc1nnc(CCc2ccccc2)o1,"inconclusive [inhibitor, full curve, poor fit]"
2,Cc1ccccc1OC1C(=O)N(Cc2ccc3c(c2)OCO3)C1c1sccc1C (configuration not stated),"inconclusive [inhibitor, partial curve]"
3,COC(=O)c1ccc(NC(=S)N2CCN(Cc3ccc(Cl)cc3)CC2)cc1,inactive
4,C/C(=N\NC(=O)C(c1ccccc1)c1ccccc1)c1ccc(O)cc1,"inconclusive [inhibitor, partial curve, poor fit]"
5,O=c1c2ccccc2nnn1CSc1ccc2ccccc2n1,inactive
6,O=[N+]([O-])c1ccc(S(=O)(=O)NCC2CC3CCC2C3)cc1 (configuration not stated),inactive
7,O=C(Nc1ccc(F)cc1)N1CCN(c2nc3ccccc3s2)CC1,"inconclusive [inhibitor, single point]"
8,Cc1cc(C)n(C(C[N+](=O)[O-])c2ccc(Cl)cc2)n1 (configuration not stated),"inconclusive [inhibitor, partial curve, poor fit]"
9,CC1=NN(c2cccc(C(=O)O)c2)C(=O)/C1=C\C=C/c1ccccc1,"inconclusive [inhibitor, full curve, poor fit]"
10,CCOC(=O)c1ccc(-n2c(=S)sc3c(=O)[nH]c(C)nc32)cc1,inactive
11,CCc1ccc(C(=O)NC(=S)Nc2ccc(N3CCOCC3)cc2)cc1,"inconclusive [inhibitor, single point]"
12,COc1cc(/C=N/NC(N)=O)cc([N+](=O)[O-])c1O,inactive
13,Cc1nc(NC(=O)c2ccco2)sc1-c1csc(Nc2ccc(Cl)cc2Cl)n1,"inconclusive [inhibitor, partial curve]"
14,O=c1c2c(nc3cc(-c4ccc(Br)cc4)[nH]n13)CCCC2,inactive
15,Cn1ccnc1C1CCCCN1Cc1nc(-c2ccc(Cl)cc2)no1 (configuration not stated),active: 11.7 µM
16,O=C(N/N=C/c1cc([N+](=O)[O-])ccc1O)C1C2CCCCC21 (configuration not stated),"inconclusive [inhibitor, single point]"
17,CCCn1c(SCCc2ccccc2)nc2c1c(=O)[nH]c(=O)n2C,"inconclusive [inhibitor, partial curve]"
18,CC(C)CCN(C(=O)c1cc(=O)[nH]c2ccccc12)c1c(N)n(Cc2ccccc2)c(=O)[nH]c1=O,"inconclusive [inhibitor, single point]"
19,S=c1[nH]c(-c2ccccc2)cn1/N=C/c1cccc2ccccc12,"inconclusive [inhibitor, single point]"
20,COc1cc2c(cc1OC)CN(C(=O)c1cccc(S(=O)(=O)N3CCc4ccccc43)c1)CC2,active: 10.4 µM
21,CCCCn1c(N)c(N(CCC(C)C)C(=O)c2ccc(COc3ccccc3)o2)c(=O)[nH]c1=O,"inconclusive [inhibitor, single point]"
22,COC(=O)CSc1nc2cc3c(cc2cc1C)OCO3,inactive
23,CCOC1(c2ccccc2)CC1C(=O)N/N=C/c1cccc([N+](=O)[O-])c1 (configuration not stated),"inconclusive [inhibitor, partial curve]"
24,CS(=O)(=O)N(CC(=O)NCCC1=CCCCC1)c1ccc2c(c1)OCO2,active: 4.15 µM

row,Compound,Potency
1,COc1ccc(C(=O)NN(c2ccccc2)c2ccccc2)cc1,"inconclusive [inhibitor, single point]"
2,Cc1ccc(NC(=O)CSc2nnc(N)s2)cc1S(=O)(=O)N1CCCCC1,"inconclusive [inhibitor, partial curve, poor fit]"
3,COc1ccc(NC(=O)C2CCCN(S(=O)(=O)c3cccc4nonc34)C2)c(OC)c1 (configuration not stated),"inconclusive [inhibitor, partial curve]"
4,CC(Cc1cccc(C(F)(F)F)c1)NCCOC(=O)c1ccccc1 (configuration not stated),"inconclusive [inhibitor, partial curve, poor fit]"
5,O=C(Nc1cccc(Cl)c1)Nc1ccccc1-n1ccnc1,"inconclusive [inhibitor, single point]"
6,Cc1ccc(C(=O)OCC(=O)Nc2c(C)n(C)n(-c3ccccc3)c2=O)cc1[N+](=O)[O-],inactive
7,CCCCN(C(=O)C1CC(=O)N(c2ccc3c(c2)OCCO3)C1)c1c(N)n(CCCC)c(=O)[nH]c1=O (configuration not stated),"inconclusive [inhibitor, single point]"
8,CC(=O)c1cccc(NC(=O)CSc2nnc(-c3ccncc3)o2)c1,inactive
9,CC(C)C(C)NC(=O)COc1ccc(OCc2ccccc2)cc1 (configuration not stated),inactive
10,Cc1cc([N+](=O)[O-])ccc1NC(=O)C(C)[n+]1ccccc1 (configuration not stated),inactive
11,Clc1ccc(-c2nnc3ccccn23)cc1,"inconclusive [inhibitor, partial curve]"
12,Cc1ccc(Nc2cc(=O)[nH]c(=O)[nH]2)cc1Cl,"inconclusive [inhibitor, single point]"
13,CC(=O)C(N=Nc1ccccc1)(Sc1nnc(-c2ccccc2)n1-c1ccccc1)C(=O)Nc1ccccc1 (configuration not stated),active: 13.1 µM
14,Cc1ccc(S(=O)(=O)c2c(C)nn(C(C)(C)C)c2OC(=O)c2ccc(Br)o2)cc1,inactive
15,CCn1cc(CCC(=O)NC2CCCC2)c2ccccc21,"inconclusive [inhibitor, partial curve]"
16,Cc1cc(NC(=O)CN(C)S(=O)(=O)c2ccc(-c3ccc(=O)[nH]n3)s2)ccc1Br,inactive
17,CC(C)C(=O)N1CCN(c2ccc([N+](=O)[O-])c(NC(C)c3ccccc3)c2)CC1 (configuration not stated),active: 9.28 µM
18,COC(=O)c1ccc(C23CC4(C2)[C@H](CN(CC2CCCCC2)[C@@H]4c2ccccc2)C3c2ccccc2)cc1 (some centres not stated),"inconclusive [inhibitor, single point]"
19,CC(=O)c1ccc(OC(=O)/C=C/c2ccccc2)cc1,inactive
20,CC1=Nc2ccc(C)cc2/C1=C/c1c(N)n2c(S(=O)(=O)C(C)C)nsc2nc1=O,"inconclusive [inhibitor, single point]"
21,CC(C)c1ccccc1NC(=O)COC(=O)Cc1ccsc1,inactive
22,CCOP(=O)(OCC)C(Nc1cc(Cl)cc(Cl)c1)c1cccc(O)c1 (configuration not stated),"inconclusive [inhibitor, single point]"
23,O=C(NCCCCNC(=O)c1ccccc1Cl)c1ccccc1Cl,inactive
24,O=C(COC(=O)/C=C/c1cccs1)Nc1cccc(S(=O)(=O)N2CCOCC2)c1,"inconclusive [inhibitor, single point]"

row,Compound,Potency
1,CCCN1Cc2cccc(C(=O)NC(CC(=O)OCC)c3ccc(OC(C)C)cc3)c2C1=O (configuration not stated),active: 13.1 µM
2,O=C(/C=C/c1ccc(O)c(O)c1)OC(Cc1ccc(O)c(O)c1)C(=O)O (configuration not stated),"inconclusive [inhibitor, full curve, poor fit]"
3,O=C1Nc2ccc(Br)cc2/C1=C/C(=O)c1ccc2c(c1)OCO2,inactive
4,Cc1cc(C)cc(NC(=O)[C@H](Cc2c[nH]c3ccccc23)NC(=O)[C@@H]2Cc3ccccc3CN2)c1,active: 9.28 µM
5,CCCn1cc(S(=O)(=O)CC(=O)Nc2ccc(OC)cc2OC)c2ccccc21,"inconclusive [inhibitor, partial curve, poor fit]"
6,c1ccc2c(-n3cccn3)cccc2c1,inactive
7,CC1=C(C(=O)OC(C)C)[C@]2(C(=O)N(CC(N)=O)c3ccccc32)C(C#N)=C(N)O1,"inconclusive [inhibitor, single point]"
8,O=C(CSc1nnc(-c2ccc(S(=O)(=O)N3CCCC3)cc2)o1)NCc1ccco1,"inconclusive [inhibitor, single point]"
9,Cc1ccc(-c2nnc(N(C)C(=O)c3cccnc3)s2)cc1,inactive
10,CC1CCC(C(C)C)C(OC(=O)CSc2nnc(N)s2)C1 (configuration not stated),"inconclusive [inhibitor, single point]"
11,C=CCC(Nc1ccccc1)C12C=CC(O1)C(C(=O)OC)=C2C(=O)OC (configuration not stated),"inconclusive [inhibitor, single point]"
12,COC(=O)C1=CN(Cc2ccccc2)C=C(C(=O)OC)C1c1cc(F)ccc1F,active: 7.38 µM
13,COc1cc(/C=C/C(=O)NCCN2CCOCC2)cc(OC)c1OC,inactive
14,O=C(NCCc1c[nH]c2ccccc12)c1ccc(-n2cnnn2)cc1,"inconclusive [inhibitor, full curve, poor fit]"
15,CCOc1ccc(S(=O)(=O)NCCC(=O)NCCOc2ccccc2)cc1,"inconclusive [inhibitor, partial curve, poor fit]"
16,CCOC(=O)/C=C(\C)N1N=C(c2ccccc2)CC1c1ccccc1 (configuration not stated),inactive
17,COc1cc2c(cc1OC)[C@@H]1Cc3cc4c(cc3[C@H](C2)N1C)OCO4,inactive
18,COc1ccc(C2/C=C\CN(S(=O)(=O)c3ccc(C)cc3)[C@H](Cc3ccccc3)C(=O)N2Cc2ccc(F)cc2)cc1 (some centres not stated),active: 4.15 µM
19,CCN1C(=O)N/C(=C/c2ccc(C)o2)C1=O,inactive
20,Cc1cc(C)c2cc(CN(CCCN(C)C)C(=S)NCc3ccccc3)c(=O)[nH]c2c1,"inconclusive [inhibitor, partial curve]"
21,O=C(Cn1cnc2ccccc21)N1CCc2ccccc21,inactive
22,COC(=O)C1=C(c2ccc(F)cc2OCc2ccccc2)C[C@@H]2CC[C@H]1N2C(=O)N1CCOCC1,active: 6.57 µM
23,COc1ccc(C)cc1NC(=O)CN(c1ccccc1F)S(C)(=O)=O,inactive
24,Cc1ccc(C(=O)N2CC=C(c3ccccc3)CC2)o1,active: 13.1 µM
